“And” between values parts separate entries of the source, which are not always exact repeats. Equal entries are not always repeated. Each block holds one binder with its values, some of them ahead of it.
How the values were obtained:
[1] = biological target: T1, human GITR expressed on cells (human, UniProt Q9Y5U5 26-241); assay: cell-based or functional assay
T1 sequence: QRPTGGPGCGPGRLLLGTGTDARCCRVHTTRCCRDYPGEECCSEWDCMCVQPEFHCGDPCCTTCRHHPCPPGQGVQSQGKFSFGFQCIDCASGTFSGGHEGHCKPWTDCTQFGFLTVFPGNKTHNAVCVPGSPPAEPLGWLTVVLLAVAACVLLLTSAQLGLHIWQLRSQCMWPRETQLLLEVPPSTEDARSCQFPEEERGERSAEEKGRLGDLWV

[2] = biological target: T2, recombinant cynomolgus monkey GITR (cynomolgus monkey); assay: KinExA, solution equilibrium
T2 construct: also called recombinant cynomolgous GITR; cynomolgus GITR

recombinant human GITR = biological target: T3, recombinant human GITR (human, UniProt Q9Y5U5 26-162); assay: KinExA, solution equilibrium at 25 C
T3 sequence: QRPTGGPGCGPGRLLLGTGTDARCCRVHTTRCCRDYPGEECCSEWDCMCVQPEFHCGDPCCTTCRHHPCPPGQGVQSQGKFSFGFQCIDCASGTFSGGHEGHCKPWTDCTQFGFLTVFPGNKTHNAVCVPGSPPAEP

EC50, luminescence of Jurkat cells transfected with hGITR and an NFκB luciferase reporter [1]: 182 pM and ~180 pM
EC50, proliferation of primary human T cells (thymidine incorporation), plate bound FP with anti-CD3 and anti-CD28 [1]: 0.3 nM
EC50, release of IFN-γ by primary human T cells, plate bound FP with anti-CD3 and anti-CD28 [1]: 0.6 nM
Kd [2]: 107 nM
Kd (recombinant human GITR): 82 nM
B1: hexameric GITRL IgG1 FP comprising monomeric subunits of SEQ ID NO: 6 (Fc fusion)
chain: [human IgG1 Fc omitted here]GGGGSGGGGSGGGGSGGGGSGGGGSVSRLEEEMRKLQATVQELQKRLDRLEETVQAKGGGGQLETAKEPCMAKFGPLPSKWQMASSEPPCVNKVSDWKLEILQNGLYLIYGQVAPNANYNDVAPFEVRLYKNKDMIQTLTNKSKIQNVGGTYELHVGDTIDLIFNSEHQVLKDNTYWGIILLANPQFIS
modifications: biotinylated in the ELISA
notes: also called hexameric hGITRL IgG1 FP; hexameric GITRL FP

EC50, luminescence of Jurkat cells transfected with hGITR and an NFκB luciferase reporter [1]: 289 pM
EC50, proliferation of primary human T cells (thymidine incorporation), plate bound FP with anti-CD3 and anti-CD28 [1]: 0.5 nM
EC50, release of IFN-γ by primary human T cells, plate bound FP with anti-CD3 and anti-CD28 [1]: 0.8 nM
B2: hexameric GITRL IgG4P FP comprising monomeric subunits of SEQ ID NO: 40 (Fc fusion)
chain: [human IgG4 Fc with S228P (EU numbers) omitted here]GGGGSGGGGSGGGGSGGGGSGGGGSVSRLEEEMRKLQATVQELQKRLDRLEETVQAKGGGGQLETAKEPCMAKFGPLPSKWQMASSEPPCVNKVSDWKLEILQNGLYLIYGQVAPNANYNDVAPFEVRLYKNKDMIQTLTNKSKIQNVGGTYELHVGDTIDLIFNSEHQVLKDNTYWGIILLANPQFIS

Reference: patent publication US20170073386A1 (AstraZeneca / MedImmune, published 2017)
